# PubChem BioAssay AID488969 (Vanderbilt High Throughput Screening Facility, 2010)
# Whole data set: some 110,000 compounds, median “z-score” near -0.1, cut for the highest 2% near 2. Some of the results follow. Activity calls are given as the source filed them.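 Rule for the calls: active = z-score in the third read window above 3 or below -3; inactive = the rest.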
# Molecular target: Metabotropic glutamate receptor 8 (Rattus norvegicus) (UniProt P70579)
# Assay: rat mGluR8 modulators via GIRK flux, primary screen, cell-based, thallium flux, HTS (AID 488969)
# Conditions: HEK293 rat mGluR8, GIRK (G protein-gated inwardly rectifying potassium channel) thallium flux, FluoZin2; at 10 µM; stronger effect = higher value; submaximal glutamate (EC20) added with thallium
# Chain of UniProt P70579 (P70579 whole entry, looked up): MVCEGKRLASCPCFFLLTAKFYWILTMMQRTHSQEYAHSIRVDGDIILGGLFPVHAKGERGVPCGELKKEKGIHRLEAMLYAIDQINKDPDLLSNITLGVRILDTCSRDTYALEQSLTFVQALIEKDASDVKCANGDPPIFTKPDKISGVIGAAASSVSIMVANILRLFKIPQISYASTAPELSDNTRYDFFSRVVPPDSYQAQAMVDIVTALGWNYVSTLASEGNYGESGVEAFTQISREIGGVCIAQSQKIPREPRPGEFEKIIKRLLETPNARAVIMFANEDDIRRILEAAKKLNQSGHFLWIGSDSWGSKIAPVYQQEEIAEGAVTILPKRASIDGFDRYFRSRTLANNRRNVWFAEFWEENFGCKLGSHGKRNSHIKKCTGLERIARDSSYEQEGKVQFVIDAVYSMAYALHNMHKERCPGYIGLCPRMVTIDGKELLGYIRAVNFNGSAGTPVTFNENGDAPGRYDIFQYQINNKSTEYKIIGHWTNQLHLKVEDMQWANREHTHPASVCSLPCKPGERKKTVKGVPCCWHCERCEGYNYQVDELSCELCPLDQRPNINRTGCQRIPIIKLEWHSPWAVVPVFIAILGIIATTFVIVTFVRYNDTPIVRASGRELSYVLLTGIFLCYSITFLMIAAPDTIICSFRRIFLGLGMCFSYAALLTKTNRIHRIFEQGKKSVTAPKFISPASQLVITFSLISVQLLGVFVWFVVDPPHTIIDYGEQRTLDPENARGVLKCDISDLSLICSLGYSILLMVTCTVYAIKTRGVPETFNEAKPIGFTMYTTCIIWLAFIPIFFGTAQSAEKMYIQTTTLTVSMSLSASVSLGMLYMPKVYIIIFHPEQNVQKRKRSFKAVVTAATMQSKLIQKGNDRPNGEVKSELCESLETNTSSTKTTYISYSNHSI
row,Compound,z-score
1,CS(=O)(=O)N1CCN(C(=O)c2cc(-c3ccncc3)nc3ccc(Cl)cc23)CC1,-0.0609
2,Nc1nc(Br)c2ccccc2c1-c1ccc(F)cc1,-0.11
3,CCCCc1ccc(S(=O)(=O)NNC(=S)NCc2ccco2)cc1,-0.395
4,CCn1nc(C)c(C2C(C#N)=C(N)Oc3n[nH]c(C)c32)c1C (stereo not drawn),-0.237
5,COc1ccccc1C1NC=C([N+](=O)[O-])C=C1[N+](=O)[O-] (stereo not drawn),-0.297
6,COCC(=O)Nc1nc2ccc(C)cc2s1,0.0888
7,COc1ccccc1CNC(=O)COc1ccccc1OC,-0.401
8,CCCCCc1c(C)nc(N2CCc3ccccc32)[nH]c1=O,0.499
9,O=C(CSc1nnnn1-c1ccccc1)Nc1ncc(Cc2cc(Cl)ccc2Cl)s1,0.34
10,Cc1csc2ncc(C(=O)NC(C)c3ccccc3)c(=O)n12 (stereo not drawn),-0.624
11,COc1ccc(-n2c(SCC(=O)Nc3nccs3)nnc2-c2ccccc2)cc1,-0.11
12,CCOC(=O)c1c(C)[nH]c(C(=O)OC/C(O)=C(\C#N)c2nc3ccccc3[nH]2)c1C,-1.26
13,CN(C)CCNC(=O)/C(=C/c1ccc(-c2cccc(Cl)c2)o1)NC(=O)c1ccccc1,0.11
14,CCN(CC)CCCNC(=O)c1cc2c(-c3ccc(Cl)cc3)nn(C)c2s1,0.282
15,O=c1c2c3c(sc2nc2n1CCCC2)CCC3,0.258
16,O=C(COc1ccccc1Br)NCCc1nc2ccccc2[nH]1,-0.186
17,O=C(CCCn1c(=O)c2sccc2n(Cc2ccc(F)cc2)c1=O)NCc1ccco1,-0.0736
18,COC(=O)c1ccc(C2C(Oc3ccccc3)C(=O)N2CCc2ccc(F)cc2)cc1 (stereo not drawn),-0.103
19,Cc1ccc(S(=O)(=O)c2cc3c(=O)n4ccccc4nc3n(Cc3ccco3)c2=N)cc1,-0.166
20,COc1ccc(CCNC(=O)C(C(=O)c2ccccc2)n2ccccc2=O)cc1OC (stereo not drawn),0.0271
21,O=c1cc(O)c2sc(Nc3cccc(C(F)(F)F)c3)nc2[nH]1,-0.0868
22,CCC(=O)NC(=S)NNC(=O)c1ccc(OC)cc1,-0.0696
23,CCOC(=O)C1=C(CNC2CCCCC2)NC(=O)NC1c1cc(C)ccc1C (stereo not drawn),1.64
24,O=C(Nc1cc(Sc2nc3ccccc3s2)cc([N+](=O)[O-])c1)c1ccccc1F,-0.2
25,O=C(COc1ccc(Cl)cc1Cl)N/N=C1\CCCc2ccccc21,0.149
26,COc1ccccc1NC(=O)CSc1nc2ncccc2[nH]1,-1.06
27,CCN(CC)S(=O)(=O)c1cccc(NC(=O)COc2ccc(C#N)cc2OC)c1,-0.191

row,Compound,z-score
1,O=C(CN(C(=O)c1ccc(Cl)cc1)N1C(=O)C2CCCCC2C1=O)c1ccc(Cl)cc1 (stereo not drawn),0.0138
2,CCOC(=O)c1ccc(NC(=O)C2CCN(S(=O)(=O)c3ccccc3)CC2)cc1,0.719
3,Cc1cc(NC(=O)C2CC(c3cccc(Br)c3)=NO2)no1 (stereo not drawn),-0.0724
4,Cc1ccc2c(c1)C1NC(=S)NC(C)(O2)C1C(=O)Nc1ccc(Cl)cc1 (stereo not drawn),-0.244
5,COc1cc(NC(=O)CSc2nnnn2Cc2ccc3c(c2)OCO3)cc(OC)c1,-0.405
6,CSc1nccc(Oc2cncc(Cl)c2)n1,-0.0377
7,CC(C)(C)n1nnnc1C(c1cccnc1)N1CCN(c2ccccc2)CC1 (stereo not drawn),1.03
8,CCn1c(=O)cc(OCC(=O)Nc2ccccc2N2CCN(C)CC2)c2ccccc21,-1.02
9,CC(C)OC(=O)c1cccc(C(=O)O)n1,-1.02
10,COC(=O)C1(C#N)C(c2ccccc2)C1(C(=O)OC)C(=O)OC (stereo not drawn),-0.244
11,CC12CCC(C(=O)N(CSC(=S)N/N=C\c3ccccc3Cl)C1=O)C2(C)C (stereo not drawn),active: 16.2
12,CCOP(=O)(OCC)c1nc(-c2ccc(C)cc2)oc1NCc1ccccc1,-0.559
13,Cc1ccc(OCC(=O)Nc2ccc3c4c(cccc24)CC3)c(C)c1,-1.37
14,CC(CN1CCN(c2ccccc2)CC1)c1ccccc1 (stereo not drawn),-0.5
15,O=C(NCc1ccncc1)c1c(F)c(F)c(F)c(F)c1F,0.359
16,N#C/C(=C\c1cc2ccccc2nc1N1CCOCC1)C(=O)Nc1ccc(N2CCOCC2)cc1,-0.0498
17,COCCSc1ccccc1C(=O)Nc1nnc(C)s1,0.0856
18,Clc1ccc2oc(-c3cccnc3)nc2c1,-0.154
19,Cc1cc(N2C(=O)C(O)=C(C(=O)c3ccc(C)o3)C2c2cccs2)no1 (stereo not drawn),active: -4.56
20,Cn1c(-c2sc3cc(C(F)(F)F)cnc3c2-c2ccccc2)n[nH]c1=S,1.26
21,COc1ccc(-n2c3c(cc(C(=O)Nc4ccc5c(c4)C(=O)NC5=O)c2=O)C(=O)CCC3)cc1,-0.0421
22,O=[N+]([O-])c1cc(C(F)(F)F)ccc1NCCNC(=S)Nc1ccc(Cl)cc1,-0.0979
23,COc1ccc(C2=NN(C(=O)c3cccs3)C(c3ccc(OC)cc3)C2)cc1 (stereo not drawn),0.167
24,c1ccc(OCCCc2nc(-c3ccncc3)no2)cc1,0.0435
25,O=C(N/N=C/c1ccc(-c2ccccc2[N+](=O)[O-])o1)c1cncc(Br)c1,-1.68
26,Cc1ccc(NC(=O)c2cc(Cl)nc3ccccc23)cc1,-0.205
